From the supplement of paper PMC3724861 come the findings set out here.

Some of the results follow.

The subject of the assay is T1, Caupolican (Caup) homeodomain DNA-binding domain.
T1 sequence: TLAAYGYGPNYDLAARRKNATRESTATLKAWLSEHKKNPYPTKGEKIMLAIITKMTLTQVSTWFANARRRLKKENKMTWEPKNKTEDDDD
Nature of the assay: PBM E-score (8-mer, recovered from the published 9-mer minima) (E-score (dimensionless, -0.5 to 0.5)); Drosophila protein; higher = stronger relative binding preference, active = 0.31 or more. In a few lines: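 Caup's homeodomain DNA-binding domain (residues 214-303) was produced by in vitro transcription and translation and applied at 100 nM to custom-designed protein binding microarrays. Each value is an enrichment score giving relative binding preference for a short DNA word; higher means stronger. Published 9-mer scores were the minimum of their two constituent 8-mer scores, and the 8-mer values were recovered from those minima. A cutoff of 0.31 marks candidate binding sequences.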
ACGCGTGG: the “PBM E-score” value was inactive: -0.109. Under CAACTAAC stands inactive: 0.134. Under CCAGACGC stands inactive: -0.198. Under AAACGGAA stands inactive: -0.0372; under GCGGAGGA, inactive: -0.14. As to ACGAGTAT, the “PBM E-score” value was inactive: 0.137. The value for GGCAATCA was inactive: 0.0644. In the case of CATGTTGG, the “PBM E-score” value was inactive: 0.285. Under ACCAAGCT stands inactive: 0.098. Under CACCAGGG stands inactive: -0.167. On to CTCCTTGA, for which the “PBM E-score” value is inactive: -0.0809. The value for AGTTGGAC was inactive: -0.0407; that for GGGCCGCA was inactive: -0.273. Under CCGTTAAC stands inactive: 0.0319; under AAAAAATT, inactive: 0.0131. The value for AGTCCCAG was inactive: -0.111; that for CTGAGTAA was inactive: 0.0161. Take ACTCCACG: the “PBM E-score” value is inactive: -0.122.

ATAATAAC: the “PBM E-score” value is inactive: 0.186. The value for CTAAGCCA was inactive: -0.122; that for CCTGTAGA was inactive: 0.149. GCCATCTA: the “PBM E-score” value is inactive: -0.121. Under AGAATAAG stands inactive: 0.101; under AGATCAAA, inactive: 0.00943; under ATACCCTG, inactive: 0.0156. The value for ACAAACCA was inactive: 0.0875; that for AACGCGCA was at least 0.0378.

Take ACTGCTGA: the “PBM E-score” value is inactive: -0.0341. Under AAATGAAG stands inactive: -0.0254; under ATACTTGC, inactive: 0.165. The value for GCGAGTAC was inactive: 0.0649; that for CCTCTAGA was inactive: -0.109; that for CTCTGCTC was inactive: -0.135. Under AGCTTAAT stands inactive: 0.012; under CGTTGAAG, inactive: -0.0388; under ACAGGGGA, inactive: 0.0363. Regarding AGTCAGCA, the “PBM E-score” value is inactive: 0.028.

As for TACGTGGA, the “PBM E-score” value is inactive: -0.086.

Turning to CCTTGTCC, the “PBM E-score” value is inactive: 0.171. The value for GTCGATGA was inactive: 0.0265; that for GCGAGGTA was inactive: -0.0513; that for CGATCTGC was inactive: -0.154. The value for GAATACTC was inactive: 0.0382. The value for ACGTGGGG was inactive: -0.178; that for ATACGAGA was inactive: 0.0776; that for GACTGGGC was inactive: -0.118. Regarding ATACTTCC, the “PBM E-score” value was inactive: -0.0177. The value for CAACTGTC was inactive: 0.034; that for CCGAGGCC was inactive: -0.223. As to AAGTGGAT, the “PBM E-score” value is inactive: -0.0369. Under AAACGTCT stands inactive: 0.098; under CGTTGTCA, inactive: 0.251; under CTCCCGGC, inactive: -0.196.

With TTAGTCAA, the “PBM E-score” value was inactive: 0.0398. The value for ATGCTCGG was inactive: -0.0911; that for AGGTCAGA was inactive: -0.0949. With GTATCTGA, the “PBM E-score” value is inactive: 0.137.

For AGGTCATG, the “PBM E-score” value is inactive: 0.0878. For the sequence GATCTGTA, the “PBM E-score” value is inactive: 0.0986.

Take CGGGTGGC: the “PBM E-score” value is inactive: -0.215.

With AGGCTTTG, the “PBM E-score” value is inactive: -0.163. Under CCGTGACA stands inactive: 0.184; under ATACACCC, inactive: 0.138; under TGAACGAA, inactive: -0.0399.

Take CAAGTGAA: the “PBM E-score” value is inactive: 0.0592. As to ACGACAGG, the “PBM E-score” value was at least 0.164. The value for AGGTTCGC was inactive: -0.174; that for AATATGTA was active: 0.328; that for TAGAACGA was at least 0.134.

Consider ACTCCGCC, for which the “PBM E-score” value is inactive: -0.169. The value for ACTCACCC was inactive: -0.158. The value for CAACGGCG was inactive: -0.182. Under AGTGTTGC stands inactive: 0.143; under TAATCGCA, inactive: 0.0941. As for AGTCAGAG, the “PBM E-score” value was inactive: -0.0951. As to AGCGTTGC, the “PBM E-score” value was inactive: -0.0725. The value for AAGAGAAG was inactive: -0.0176; that for TAAATGCA was inactive: 0.0979; that for CATCCCTC was inactive: -0.0768. The value for ATCATTGG was inactive: 0.0563.

In the case of TAATTAAA, the “PBM E-score” value was inactive: 0.191. Under GGAGTCCA stands inactive: -0.104; under AGGCAGAT, inactive: -0.00918.

Turning to CCTCCAGA, the “PBM E-score” value was inactive: -0.113. For AATGCGGT, the “PBM E-score” value is inactive: -0.0245. The value for AGGTTCCA was inactive: -0.0398; that for GGACTGTA was inactive: 0.0655. On to CGGCAAAC, for which the “PBM E-score” value is inactive: -0.0203. Under ACATCGCT stands inactive: 0.178; under ACTCGGGG, inactive: -0.124; under ACGAAGTA, inactive: 0.0633. The value for AAAGTGTT was inactive: 0.17; that for GCTCAGGA was inactive: -0.0793. The value for GGACCACA was inactive: -0.0448; that for CGTTTTAG was inactive: -0.0741; that for GATTTAGA was inactive: -0.032. With CGCAACCG, the “PBM E-score” value was inactive: -0.152. Turning to GACTTCGA, the “PBM E-score” value is inactive: -0.0675.

On to GCGAGTTA, for which the “PBM E-score” value is inactive: 0.00911. Consider CAGCTTCG, for which the “PBM E-score” value is inactive: -0.082. On to ATAGTAAG, for which the “PBM E-score” value is inactive: 0.0934. Under CACGTACA stands inactive: 0.261; under AGTCCGCC, inactive: -0.146; under AGCGAGGC, inactive: -0.21. Under CGGGGTGA stands inactive: -0.0916; under AATCTATA, inactive: 0.116; under ATAGGATG, inactive: 0.0744.

Take AAGCGTAC: the “PBM E-score” value was inactive: 0.0443. On to CGTAAATC, for which the “PBM E-score” value was inactive: -0.00723.

In the case of AGCCTACG, the “PBM E-score” value was inactive: -0.0134. Under CATTGGAC stands inactive: 0.0602. The value for ACTGTGCA was inactive: 0.0436.
